# Experimental data from paper PMC4336329 (PLoS ONE, 2015).
# Among all 310,000 compounds or so, about 14,000 (4.5%) showed an effect of 50% or more. Effects have a minus sign here. The list shows a part of the results.
# Target: human ether-à-go-go-related gene (hERG) potassium channel (human, UniProt Q12809)
# Experiment: primary screen, population patch clamp on CHO cells stably expressing hERG
# 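Further: peak tail current of the secondary pulse compared with the same well before compound.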
# Chain of human ether-à-go-go-related gene (hERG) potassium channel (Q12809 whole entry, looked up): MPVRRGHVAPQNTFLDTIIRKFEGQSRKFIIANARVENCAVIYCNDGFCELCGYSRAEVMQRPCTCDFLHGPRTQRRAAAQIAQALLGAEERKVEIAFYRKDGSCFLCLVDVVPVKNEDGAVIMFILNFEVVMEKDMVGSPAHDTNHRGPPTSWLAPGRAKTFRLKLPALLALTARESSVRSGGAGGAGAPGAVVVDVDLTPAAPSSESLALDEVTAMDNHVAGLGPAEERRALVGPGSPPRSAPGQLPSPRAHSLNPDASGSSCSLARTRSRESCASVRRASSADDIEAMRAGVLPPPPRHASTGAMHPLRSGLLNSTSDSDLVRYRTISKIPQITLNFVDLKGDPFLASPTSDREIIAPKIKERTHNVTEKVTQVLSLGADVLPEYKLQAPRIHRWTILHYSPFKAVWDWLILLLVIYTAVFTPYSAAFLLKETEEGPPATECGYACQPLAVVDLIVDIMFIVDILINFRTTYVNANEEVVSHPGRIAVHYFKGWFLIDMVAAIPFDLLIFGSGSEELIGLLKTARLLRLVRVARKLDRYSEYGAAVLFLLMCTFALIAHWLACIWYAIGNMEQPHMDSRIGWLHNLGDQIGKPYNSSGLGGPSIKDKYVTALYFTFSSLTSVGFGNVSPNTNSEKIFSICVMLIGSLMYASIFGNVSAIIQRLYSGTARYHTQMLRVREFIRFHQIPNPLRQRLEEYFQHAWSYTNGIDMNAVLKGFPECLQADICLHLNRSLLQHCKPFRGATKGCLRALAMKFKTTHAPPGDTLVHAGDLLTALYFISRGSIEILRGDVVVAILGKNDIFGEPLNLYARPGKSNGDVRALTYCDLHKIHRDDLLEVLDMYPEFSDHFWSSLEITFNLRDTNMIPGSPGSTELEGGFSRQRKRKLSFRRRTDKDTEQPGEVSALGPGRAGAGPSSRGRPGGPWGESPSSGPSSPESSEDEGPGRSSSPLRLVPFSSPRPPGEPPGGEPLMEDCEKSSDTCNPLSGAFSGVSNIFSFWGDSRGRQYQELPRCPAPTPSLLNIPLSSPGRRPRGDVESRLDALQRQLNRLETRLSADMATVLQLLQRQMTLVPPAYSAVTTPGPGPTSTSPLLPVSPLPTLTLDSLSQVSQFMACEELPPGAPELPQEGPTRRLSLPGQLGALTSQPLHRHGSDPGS
row,SMILES,"hERG current change (%, negative = inhibition) at 10uM"
1,COc1ccc(OCCC(=O)OCC(=O)NCc2ccccc2)cc1,6.93%
2,O=C(CSc1nc2[nH]ncc2c(=O)[nH]1)Nc1ccc(OC(F)(F)F)cc1,15.3%
3,Cc1ccc(-c2cc(C(=O)N/N=C/c3cccnc3)n[nH]2)o1,15.2%
4,C/C(=N\NC(=O)CC#N)c1cc2ccc(O)cc2oc1=O,5.05%
5,COc1ccc(-c2noc(CN(Cc3nccn3C)C(C)C)n2)cc1,-6.99%
6,COc1cc([N+](=O)[O-])cc(/C=N\NC(=O)C2COc3ccccc3O2)c1O (stereo not shown),-1.68%
7,Cc1ccc(-c2ccc(=O)n(CC(=O)N3CCN(c4cccc(C)c4)C(C)C3)n2)cc1 (stereo not shown),-32%
8,Cc1cc(C(=O)NCc2ccco2)c2ccccc2n1,4.66%
9,Cc1cc(C(=O)N/N=C/c2ccc(N(C)C)o2)cs1,-0.379%
10,CC(=O)Nc1ccc(NC(=O)C(C)OC(=O)CNC(=O)c2sc3ccccc3c2Cl)cc1 (stereo not shown),18.6%
11,COc1ccc(C(=O)Nc2nnc(C3=COCCO3)o2)cc1,17.6%
12,N#CSCC(=O)c1cccc2ccccc12,-24.8%
13,Cc1nn(C)c(C)c1CCC(=O)NC1CC(C)(C)Cc2c1cnn2-c1ccccc1 (stereo not shown),-28.1%
14,Cc1ccc(-c2csc3nc(C)n(-n4c(C)ccc4C)c(=O)c23)o1,-3.01%
15,CCOc1ccc(C(=O)NNC(=O)c2cc(C)oc2C)cc1,8.48%
16,COc1cc(C(=O)N/N=C(\C)c2ccc(NC(=O)Cc3ccccc3)cc2)ccc1O,13.6%
17,COC(=O)c1cc(Cl)c(NC(=O)C(C)C)cc1OC,9.39%
18,CCCC(=O)N1CCN(c2ccc(NC(=O)c3cc4ccccc4o3)cc2Cl)CC1,-56.8%
19,COc1ccc(-n2nnnc2SC(C)C(=O)NC2CCCC2)cc1 (stereo not shown),3.17%
20,Cc1ccc(NC(=O)CCN2C(=O)OC(C)(C)C2(C)O)cc1 (stereo not shown),42.1%
21,Cc1ccc(CNC(=O)CSc2nc(=O)n3cccc(C)c3n2)cc1,-17%
22,CC(C)C(NC(=O)c1c(F)cccc1F)C(=O)OCN1C(=O)c2ccccc2C1=O (stereo not shown),13.1%

row,SMILES,"hERG current change (%, negative = inhibition) at 10uM"
1,COc1ccc(-n2c(=S)[nH]c3cc(C(=O)NCc4ccco4)ccc3c2=O)cc1OC,6.37%
2,COC(=O)c1cccc(N2C(=O)C(Cl)=C(N3CCOCC3)C2=O)c1,-3.28%
3,COc1cc2nc(C3CC3)n(NC(=O)c3ccc(F)cc3)c(=O)c2cc1OC,2.87%
4,CCN1CCN(CCCN(Cc2ccco2)C(=S)Nc2ccc(Cl)c(C)c2)CC1,-74.8%
5,Cc1cccnc1NC(=O)c1ccc([N+](=O)[O-])o1,-3.22%
6,Cc1nnc(SC(C(=O)Nc2cc(Cl)cc(Cl)c2)c2ccccc2)[nH]c1=O (stereo not shown),18.9%
7,CSc1ccc(/C=C(/NC(=O)c2ccccc2)C(=O)N2CCN(C)CC2)cc1,-75.9%
8,CC1(C)C(=O)Nc2ccccc2N1C(=O)Cn1ncc(Cl)c(Cl)c1=O,9.47%
9,ONC(=Nc1ccc(Cl)cc1)c1ccc(Cl)cc1,-3.93%
10,CN1C(=O)C2(c3ccccc31)N(C)CC(c1ccccc1)C21SC(=S)N(Cc2ccco2)C1=O (stereo not shown),5.47%
11,O=C(NNC(=S)Nc1ccccc1Cl)c1ccccc1Br,23.6%
12,CCN(C(=O)Cn1nc(C)c([N+](=O)[O-])c1C)C1CCS(=O)(=O)C1 (stereo not shown),24.1%
13,CCOC(=O)CSc1nnc(CNC(=O)c2ccc(OC)cc2OC)n1C,-18.4%
14,Cc1oc2c(C)c(O)ccc2c(=O)c1N1C(=O)c2ccccc2C1=O,-3.56%
15,O=[N+]([O-])c1cccc(NC(=S)N2CCOCC2)c1,25%
16,CN(CC(=O)Nc1c(Cl)cccc1Cl)C(=O)c1ccccc1SCC(=O)N1CCCC1,7.08%
17,COC(=O)c1sc(NC(=O)/C=C/c2ccc(C)o2)nc1C,19.9%
18,O=C(NCc1ccc(Cl)c(Cl)c1)C1CCCC1,-1.13%
19,Cc1ccc(-c2cc(-c3c(C)nn(C)c(=O)c3N)[nH]n2)cc1,16.4%
20,O=C(CC1SC(=O)N(Cc2cccc3ccccc23)C1=O)Nc1nccs1 (stereo not shown),6.31%
21,CCOC(=O)N1CCN(C(=O)c2ccccc2N(Cc2ccccc2)S(=O)(=O)c2ccc(OC)cc2)CC1,-26.3%
22,COc1cc(/C=N/NC(=O)c2ccc3c(c2)OCCO3)cc(Br)c1O,-12.2%

row,SMILES,"hERG current change (%, negative = inhibition) at 10uM"
1,Cc1nc2ccc(Nc3ccncc3)cc2s1,-16.6%
2,CN1CCN(C2=C(Cl)C(=O)C(c3cnc(N4CCCCC4)s3)=C(Cl)C2=O)CC1,6%
3,O=C(NCCC(=O)N1CCN(c2ncccn2)CC1)c1ccccc1Cl,6.64%
4,COc1ccc(C(=O)NC2CC2)cc1OC1CCN(Cc2ccc(F)cc2Cl)CC1,-70.9%
5,Cc1ccc(S(=O)(=O)Cn2nnnc2C(C(C)C)N2CCN(c3nc4ccccc4s3)CC2)cc1 (stereo not shown),9.27%
6,Cc1ccc(CNC(=O)C2CCCN(C(=O)N(C)C)C2)cc1 (stereo not shown),4.16%
7,COc1ccccc1C(=O)NCCC(=O)NNC(=O)Cn1ccc(C(F)(F)F)n1,-12.2%
8,CC(C)(Cc1nc2ccccc2[nH]1)C(=O)O,0.303%
9,COc1cc2c(cc1NC(=O)CN1CCN(S(=O)(=O)c3ccc(F)cc3)CC1)oc1ccccc12,13.7%
10,CCN1CCN(CCCNC(=O)CCC(=O)N2CC(C)Oc3ccc(C)cc32)CC1 (stereo not shown),-12.5%
11,COc1ccc2ccn(C)c2c1,13.2%
12,Cc1cccn2c(=O)c(/C=N/O)c(N3CCCCC3)nc12,-0.844%
13,COc1ccc(/C=C2\N=C(C)N(c3ccc4ccccc4c3)C2=O)cc1OC,-3.56%
14,CC(=O)c1ccc(NC(=S)NCCc2ccc(S(N)(=O)=O)cc2)cc1,5.38%
15,Cc1ccc(N2C(=O)C(Cl)=C(N3CCOCC3)C2=O)cc1Cl,-18.4%
16,NC(=O)C1CCN(c2ncnc3c2c(-c2ccccc2)cn3-c2ccccc2)CC1,7.86%
17,C=CCc1cccc(/C=N/NC(=O)CCCNc2ccc(C)cc2)c1O,11.9%
18,COc1ccc(N(C(=O)c2ccc(Br)o2)C2C=CS(=O)(=O)C2)cc1 (stereo not shown),-25.7%
19,COC(=O)/C=C/c1ccccc1CN1[C@@H](CC(=O)OC)c2ccccc2S1(=O)=O,-10.6%
20,COc1ccc(CC(=O)NCc2ccccc2)cc1S(=O)(=O)N1CCOCC1,-8.27%
21,CCN(CC(=O)Nc1ccccc1C(F)(F)F)C(=O)c1oc2c(Cl)cccc2c1C,-23.6%
22,COc1ccc2c(c1)CCc1c-2n[nH]c1C(=O)O,17.8%

row,SMILES,"hERG current change (%, negative = inhibition) at 10uM"
1,O=C(c1ccccc1)N1CCN(C(=O)C2CC2)CC1,27.4%
2,Cc1cc(C(=O)CCC(=O)NNC(=O)c2ccccc2O)c(C)s1,1.96%
3,CCC(=O)N1CCc2cc(S(=O)(=O)N(CC)c3cccc(C)c3)ccc21,-4.05%
4,O=C1Nc2ccc(Br)cc2C12NNc1ccccc1O2 (stereo not shown),23.9%
5,Cc1cccc(C(=O)N=c2c(C#N)cc3c(=O)n4cccc(C)c4nc3n2Cc2ccco2)c1,-65%
6,Cc1ccc(-c2nc3cc(NC(=O)C(C)C)ccc3o2)cc1,12.5%
7,CCN1CCN(C(=O)c2cc3c(-c4ccc(Cl)cc4)nn(C)c3s2)CC1,-46.7%
8,CCOC(=O)N1CCN(C(=O)CCN2C(=O)COc3ccc(C)cc32)CC1,-13.9%
9,CC1CCN(c2ccc(-c3cccc(NC(=O)C(F)(F)F)c3)nn2)CC1,-32.8%
10,O=C(CSc1cc(Cl)ccc1Cl)NC1CC1,-6.75%
11,COC(=O)c1c(C(=O)OC)c2cc(C(=O)c3ccccc3)ccn2c1Cl,2.15%
12,Brc1ccccc1OCCCCN1CCCCC1,-39.1%
13,C=CCNC(=O)C1CC1(c1ccccc1)c1ccccc1 (stereo not shown),-1.08%
14,COc1cc(C(=O)Oc2ccccc2/C=N/NC(=O)c2ccc(Cl)cc2)cc(OC)c1OC,12.8%
15,CC1CCCC(NC(=O)CSc2ncccc2C(=O)O)C1C (stereo not shown),8%
16,CN(CCOC(=O)c1ccco1)Cc1ccccc1,-7.24%
17,COC(=O)CCN(C(=O)c1ccc(N2CCCCC2)c([N+](=O)[O-])c1)c1ccccn1,-2.49%
18,COc1cc2ccccc2cc1C(=O)Nc1ccc(C)cc1,12.3%
19,CCOC(=O)c1sc(NC(=O)C(OC(C)=O)c2ccccc2)nc1C (stereo not shown),-6.48%
20,CCN(CC)S(=O)(=O)c1ccc(N2CCCC2)c(C(=O)OCC(=O)Nc2cc(C)on2)c1,-17.4%
21,COc1cc(Cl)ccc1OCc1cc(C(=O)N2C[C@H]3CC[C@H]2C3)no1,-10.4%
22,Cc1nc2cc(NC(=O)CSc3nc4c(C)cccc4cc3C#N)ccc2s1,23.3%
